Experiment [1] has as its target T1, human VEGF C (human, UniProt P49767 103-227, limits assumed).
T1 construct: also called hVEGFC; hVEGF C
T1 sequence (looked up): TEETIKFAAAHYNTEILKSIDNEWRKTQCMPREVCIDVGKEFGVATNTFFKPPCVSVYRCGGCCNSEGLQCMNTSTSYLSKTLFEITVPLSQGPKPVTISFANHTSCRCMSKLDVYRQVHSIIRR
In words: ELISA blocking: VEGFC-biotin captured on streptavidin plate; blocked receptor VEGFR3-Fc (0.2 ug/mL), detected with anti-human Fc-HRP, OD450. As for the experimental part:
(§1) SA (streptavidin) was diluted to 1 μg/mL, and 100 μL/well of SA was plated in a microplate at 4° C. overnight. The plate was washed 3 times with PBST and blocked with 3% BSA for 1.5 h. The plate was washed 3 times with PBST, 50 ng/ml of VEGFC-biotin (biotin-labeled human VEGF C) was added, and the plate was incubated for 1.5 h. 50 μL of antibody was incubated with VEGFR2-Fc (with a final concentration of 0.2 μg/mL, Beijing Sino Biological) or VEGFR3-Fc (with a final concentration of 0.2 μg/mL, Beijing Sino Biological) for 20 min in advance, and the mixture was added to the plate. The plate was washed 3 times with PBST, an anti-human FcHRP antibody (diluted in a ratio of 1:10000, BETHYL) was added, and then the plate was incubated for 30 min. The plate was washed 6 times with PBST, the color development was performed with TMB (SOLARBIO) for 5 min, and OD450 nm was read after stopping.
On the technique in general: In an ELISA, binding on a coated surface is turned into a signal by an enzyme label.

In experiment [2] the target is T1, human VEGF C. Described as above. The protocol:
as §1
This is another data set of the same source.

Like-named read-outs stand apart in the source and are kept apart here.

B1: OPT-302 (VEGF-C-trap, VEGFR3-trap molecule) (Fc fusion)
chain: YSMTPPTLNITEESHVIDTGDSLSISCRGQHPLEWAWPGAQEAPATGDKDSEDTGVVRDCEGTDARPYCKVLLLHEVHAQDTGSYVCYYKYIKARIEGTTAASSYVFVRDFEQPFINKPDTLLVNRKDAMWVPCLVSIPGLNVTLRSQSSVLWPDGQEVVWDDRRGMLVSTPLLHDALYLQCETTWGDQDFLSNPFLVHITGNELYDIQLLPRKSLELLVGEKLVLNCTVWAEFNSGVTFDWDYPGKQAERGKWVPERRSQQTHTELSSILTIHNVSQHDLGSYVCKANNGIQRFRESTEVIVHE[human IgG1 Fc not given here]
notes: Positive control; also called OPT-032; positive control molecule
B1: the results for the IC50 in experiment [1] and in experiment [2] were 0.0127 µg/mL and 0.0246 µg/mL, respectively.

The values above are taken from patent US20250002570A1 (Innovent, published 2025).
